Ends that are not written are not given here.
What was measured:
Details in all cases: tested range 1 to 512 μg/ml
[1] = tested on: C. difficile
[2] = tested on: Listeria monocytogenes
[3] = tested on: E. coli
[4] = tested on: B. thuringiensis
[5] = tested on: C. sporogenes
[6] = tested on: C. tyrobutyricum
[7] = tested on: Salmonella thyphymurium

| Sequence | MIC [1] [µg/mL] | MIC [2] [µg/mL] | MIC [3] [µg/mL] | MIC [4] [µg/mL] | MIC [5] [µg/mL] | MIC [6] [µg/mL] | MIC [7] [µg/mL] |
| --- | --- | --- | --- | --- | --- | --- | --- |
| ALLKVLFSWFRKHNSRRKNLPAKN [Seq ID no2] | 1.5 | 32 | 256 | 256 | 4 | 1 | – |
| AYRRVPCRKRGGIRFTINGH [Seq ID no4] | – | 512 | 128 | – | 512 | 16 | >512 |
| GWFNRGARCGRMIKIKARNG [Seq ID no3] | – | 512 | – | 128 | 256 | 64 | – |

Source: patent US20230287061A1, “NEW ANTIMICROBIAL PEPTIDES” (priority 2020, published 2023)
